The campaign covered roughly 360,000 compounds. About 11,000 (3.1%) were called active. This list was built around the results that the source calls inconclusive (neither active nor inactive); the mix of calls is not that of the screen. Calls follow the shape of the dose curve; as a rule, active = well fitted inhibition curve with a large enough effect; inconclusive = small, poorly fitted or top-dose-only effect; inactive = no such curve, though single readings can be large or run the other way. No potency is given beside an inconclusive call; the fits are too rough.
What follows are compounds tested against Schistosoma mansoni thioredoxin glutathione reductase (TGR) (UniProt Q962Y6) (assay: qHTS Assay for the Inhibitors of Schistosoma Mansoni Peroxiredoxins). Conditions: purified TGR, DTNB reduction, TNB absorbance 405 nm; activity change, negative = inhibition: at 114 µM (top of the series) unless noted.
Procedure, shortened: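 TGR 20 nM + NADPH 100 uM (dispensed conc.), cpd preinc 15 min RT; start with NADPH (500 uM addition) then DTNB (15 mM addition). Kinetic TNB absorbance, 405 nm filter. Four-parameter Hill fit across titration.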
% is scaled to controls: 0 for no effect and ±100 for the full control effect; potency is read from the fitted curve at half-maximal effect; tags tell the direction and shape of the fitted curve.
Also: nearly all actives have a fitted effect of over 60% in size.

| Structure (SMILES) | Potency | activity change, negative = inhibition |
| --- | --- | --- |
| CN(C(=O)c1ccc(NC(=O)Cc2cccc(NC(=O)C3CCN(C(=O)C4CC4)CC3)c2)cc1)C1CCCC1 | inconclusive [inhibitor, single point] | – |
| Cc1c(C(=O)Nc2cccc(C(F)(F)F)c2)sc2nc[nH]c(=O)c12 | – | inactive: -1.39% |
| CC(C)c1cccc(O)c(=O)c1 | inconclusive [inhibitor, single point] | – |
| COc1cc(/C=C/c2cccc[n+]2C)ccc1OCC(=O)Nc1ccccc1 | – | inactive: -4.53% |
| COc1ccccc1CNC(=O)CCc1c(C)c2cc3c(C)c(C)oc3cc2oc1=O | – | inactive: 4.94% |
| O=C1NCC(COCc2ccco2)O1 (stereo not given) | active: 44.7 µM | – |
| CCOC(=O)C1CCCN(C(=O)Nc2c(-c3ccccc3)noc2C)C1 (stereo not given) | – | inactive: -13.5% |
| C#CCOCCOCCOCCNc1nc(N2CCN(C(=O)CCCCCCCCCCNC(=O)[C@@H](CCSC)n3cc(CCO)nn3)CC2)nc(N2CCN(C(=O)CCCCCCCCCCNC(=O)[C@H](CCCN=C(N)N)n3cc(C[C@@H](C)CC)nn3)CC2)n1 | active: 5.01 µM | – |
| Cc1ccc(Nc2cc(C)nc3ncnn23)cc1 | – | inactive: 5.1% |
| C/C(=N\NC(=S)NC(C)C)c1cccc([N+](=O)[O-])c1 | inconclusive [inhibitor, full curve, poor fit] | – |
| NC(=O)NC(=O)CC1S/C(=N/N=C2\CSC(=O)N2)NC1=O (stereo not given) | – | inactive: -1.27% |
| CC(C)C(NC(=O)OCc1ccccc1)C(=O)OCC(=O)NC1CC1 (stereo not given) | inconclusive [inhibitor, single point] | – |
| Cc1ccnc(SCc2cc(=O)c(OC(=O)c3ccc(Cl)c([N+](=O)[O-])c3)co2)n1 | inconclusive [inhibitor, full curve, poor fit] | – |
| COc1ccccc1C(=O)Oc1cc(N)n(S(=O)(=O)c2ccc(C)cc2)n1 | – | inactive: -28.3% |
| Cc1ccc(C)c(S(=O)(=O)N2CCN(Cc3cc4c(cc3O)OCO4)CC2)c1 | active: 0.631 µM | – |
| Cc1ccc(CS(=O)(=O)Cc2ccc(C(=O)NCc3cccnc3)o2)cc1 | inconclusive [inhibitor, partial curve] | – |
| CC(=O)N1CC(=O)N(c2ccccc2)C1=O | inconclusive [inhibitor, single point] | – |
| COc1ccccc1S(=O)(=O)NCc1ccc(C(=O)NC2CCC(O)CC2)cc1 (stereo not given) | inconclusive [inhibitor, partial curve] | – |
| Cc1ccc(-c2c(C(=O)Nc3ccccc3C)c(C)[nH]c(=S)c2C#N)o1 | inconclusive [inhibitor, partial curve] | – |
| CCOc1ccc(-c2nc(S(=O)(=O)c3ccccc3)c(NCc3cccnc3)o2)cc1 | inconclusive [inhibitor, partial curve] | – |
| CC(=O)c1cccc(NC(=S)NC(=O)c2ccccc2)c1 | active: 28.2 µM | – |
| O=C(CSc1nnc(CNC(=O)c2cccs2)o1)Nc1ccc(Cl)cc1 | inconclusive [inhibitor, partial curve, poor fit] | – |
| COc1cc(OC)cc(-c2cc(N)n(S(=O)(=O)Cc3ccccc3)n2)c1 | – | inactive: 13% |
| COCCCNC(=O)Cn1c(=O)n(-c2ccc(C)c(C)c2)c(=O)c2c3c(sc21)CCCCC3 | active: 89.1 µM | – |

| Structure (SMILES) | Potency | activity change, negative = inhibition |
| --- | --- | --- |
| Cc1ccc2c(C(=O)CN3CCCC3)c(C)[nH]c2c1 | inconclusive [inhibitor, full curve] | – |
| COc1ccc(OC)c(NC(=O)CNC(=O)c2cccs2)c1 | inconclusive [inhibitor, full curve, poor fit] | – |
| O=C(Cn1ncc(Cl)c(Cl)c1=O)N1CCc2ccccc21 | active: 15.8 µM | – |
| CC(C)OC(=O)CC(=O)CSc1nc2c(cc1C#N)CCCCC2 | – | inactive: -5.54% |
| C=CCc1cccc2cc(C(=O)N3CCN(C(=O)OCC)CC3)c(=O)oc12 | inconclusive [inhibitor, partial curve] | – |
| CCOCCCNC(=O)N[C@@H](C)C(=O)OC | inconclusive [inhibitor, single point] | – |
| Cc1oc(-c2ccccc2F)nc1CS(=O)CC(=O)NC1CCCC1 (stereo not given) | active: 14.1 µM | – |
| C/C(=N\Nc1ccc(Cl)c(C(=O)O)c1)c1ccc(N2CCOCC2)cc1 | inconclusive [inhibitor, full curve] | – |
| COCCn1c(CNC(=O)c2cccc(C)c2)nc2cccnc21 | – | inactive: 3.19% |
| Clc1nssc1=Nc1ccccc1 | inconclusive [inhibitor, partial curve] | – |
| Cc1cc(/C=C2/C(=O)NC(=O)N(Cc3ccco3)C2=O)c(C)n1-c1ccccc1O | inconclusive [inhibitor, full curve] | – |
| CCOC(=O)C1=C(CS(=O)(=O)c2ccc(F)c(C)c2)NC(=O)NC1c1ccc(O)c(O)c1 (stereo not given) | inconclusive [inhibitor, partial curve] | – |
| CC1CCC/C(=C\Nc2ccc3c(c2)OCO3)C1=O (stereo not given) | inconclusive [inhibitor, single point] | – |
| O=C(O)Cn1cccc1C(=O)c1ccccc1 | inconclusive [inhibitor, partial curve] | – |
| COc1ccc(CCN2CC(C#N)=C3c4cc(OC)c(OC)cc4CCN3C2)cc1OC | inconclusive [inhibitor, partial curve] | – |
| O=C(/C=C/c1ccco1)NC(=S)Nc1ccc(N2CCCC2)cc1 | inconclusive [inhibitor, partial curve] | – |
| CC(C)OCCCNC(=O)CN1C(=O)c2cccnc2Sc2ccccc21 | – | inactive: -3.07% |
| COc1ccc(-c2sc3ccc(OC)cc3c2C#Cc2ccccn2)cc1 | inconclusive [inhibitor, partial curve] | – |
| COc1ccc(C(=O)Nc2ccnn2C2CCN(Cc3ccccn3)CC2)cc1 | inconclusive [inhibitor, partial curve] | – |
| O=C(/C=C/c1c(F)cccc1Cl)N1CCOCC1 | – | inactive: -9.6% |
| CCc1nc2ccccc2nc1N1CCN(S(=O)(=O)c2ccc(Cl)cc2)CC1 | – | inactive: 13.4% |
| COCCNC(=O)CN1C(=O)c2cccnc2Sc2ccccc21 | – | inactive: -9.89% |
| O=C1NC(=O)N(Cc2ccccc2)C(=O)/C1=C/N1CCCc2ccccc21 | inconclusive [inhibitor, partial curve] | – |
| COc1cccc(Cn2c(=O)n(-c3cccc(Cl)c3)c(=O)c3c4c(sc32)CN(C(C)=O)CC4)c1 | – | inactive: 18% |

| Structure (SMILES) | Potency | activity change, negative = inhibition |
| --- | --- | --- |
| O=C(NCc1ccccc1)C(=O)NCC(c1ccco1)S(=O)(=O)c1ccc(Cl)cc1 (stereo not given) | active: 50.1 µM | – |
| C/C(=N\NC(=O)c1nn(C)c(C)c1Br)c1ccc(NC(=O)c2ccoc2C)cc1 | – | inactive: -8.7% |
| CCCOc1ccccc1N1C(=O)CC(N2CCOCC2)C1=O (stereo not given) | inconclusive [inhibitor, single point] | – |
| C#Cc1ccc([C@@H]2C=C(C(=O)NCc3ccccc3)O[C@H](OCc3ccc(CO)cc3)C2)cc1 | inconclusive [inhibitor, partial curve] | – |
| Cc1cc(C)c(NC(=O)C2CCCN(S(=O)(=O)c3c(C)noc3/C=C/N(C)C)C2)c(C)c1 (stereo not given) | – | inactive: 0.926% |
| CCc1ccc2[nH]cc(C(=O)OCCOC)c(=O)c2c1 | inconclusive [inhibitor, partial curve, poor fit] | – |
| CC(C)NC(=O)c1nn2c(C(F)(F)F)cc(-c3ccco3)nc2c1Cl | inconclusive [inhibitor, partial curve] | – |
| CCOc1ccc(CNC(=O)C2CCN(c3nnc(-n4c(C)ccc4C)s3)CC2)cc1 | inconclusive [inhibitor, partial curve] | – |
| CCOc1ccccc1CNc1nc2nc3c(c(=O)n2[nH]1)CCC3 | inconclusive [inhibitor, partial curve] | – |
| CS(=O)(=O)C1=NN2C(=N)/C(=C\c3ccc(OC(=O)c4ccco4)cc3)C(=O)N=C2S1 | inconclusive [inhibitor, single point] | – |
| Cc1cccc(NC(=O)CN2C(=O)C(c3ccccc3)=NC23CCC(C)CC3)c1 (stereo not given) | – | inactive: 11.7% |
| CC(=O)c1cccc(-n2c(=O)c3c4c(sc3n(Cc3cccc(C)c3)c2=O)CN(C(C)=O)CC4)c1 | – | inactive: -1.55% |
| CN1C(=O)C(=Cc2ccccc2OCc2ccc(Cl)cc2)C(=O)N(C)C1=O | inconclusive [inhibitor, partial curve] | – |
| COc1ccc(-n2nc3cc(C)c(NC(=O)c4ccc(-c5ccc(Br)cc5)o4)cc3n2)cc1 | – | inactive: -11.6% |
| Cc1ccc(C(=O)c2cc3ccccc3o2)cc1[N+](=O)[O-] | – | inactive: -0.925% |
| CC1CCc2cc(F)ccc2N1C(=O)c1cc2nc(-c3ccco3)cc(C(F)(F)F)n2n1 (stereo not given) | inconclusive [inhibitor, full curve] | – |
| C/C(=N\OC(=O)c1ccccc1)c1c(C)nc2cc(C)ccn12 | inconclusive [inhibitor, partial curve] | – |
| CCOC(=O)c1ccc(S(=O)(=O)Nc2cc(C(=O)O)ccc2Cl)cc1 | – | inactive: -7.41% |
| NC(=O)c1c(NC(NC(=O)c2ccco2)(C(F)(F)F)C(F)(F)F)sc2c1CCCC2 | inconclusive [inhibitor, partial curve] | – |
| C/C(=C\C(=O)c1ccc(Br)cc1)NNC(=O)c1ccc(O)cc1 | inconclusive [inhibitor, single point] | – |
| O=S(=O)(c1ccc(NC(=S)Nc2ccc3c(c2)OCO3)cc1)N1CCOCC1 | inconclusive [inhibitor, partial curve] | – |
| O=C(Oc1cc(Cl)cc(Cl)c1)c1cnc2n(c1=O)CCS2 | inconclusive [inhibitor, partial curve] | – |

— PubChem BioAssay AID485364 (National Center for Advancing Translational Sciences (NCATS), 2010)
